# Test results from ChEMBL document CHEMBL4888484, “Replenishing the malaria drug discovery pipeline: Screening and hit evaluation of the MMV Hit Generation Library 1 (HGL1) against asexual blood stage Plasmodium falciparum ,using a nano luciferase reporter read-out” (2022).
# Among all 150,000 compounds or so, about 540 (0.36%) showed an effect of 50% or more. Some of the results follow.
# System: Plasmodium falciparum
# Assay: Primary screen in NF54 nanoGlo assay, in single point, at 2uM, 72h; a lower Z score goes with more inhibition
# Assay type: functional, Erythrocyte
# Conditions: timepoint 72 hour
Compound,% Inhibition [%],Z score
O=C(CNc1ccc(N2CCOCC2)cc1)Nc1cc(S(=O)(=O)N2CCOCC2)ccc1N1CCOCC1,-2,0.35
COc1ccc(C(=O)Nc2nc(-c3ccccc3)cc(-c3ccc(Cl)cc3)n2)cc1,-17,3.29
CCCS(=O)(=O)NC1CCN(Cc2cc3c(cc2OCC)C[C@H](C)O3)CC1,4,-0.52
O=C(N[C@H]1CCc2[nH]cnc2C1)c1cc(C(F)F)ncn1,-1,0.16
CCc1ccc(CN(C)Cc2ccc(OC)nc2)nc1,-8,1.59
COc1cccc(CN(CC(=O)NCCc2ccc(OC(F)F)cc2)C2CCC(O)CC2)c1 (stereo not drawn),-13,1.37
O=C(NCc1nc(-c2cc[nH]c(=O)c2)no1)c1ccn[nH]1,-13,2.17
N#Cc1ccc(N[C@H]2C[C@@H](c3cc(N4CC[C@H](O)C4)ncn3)C2)nc1,-7,0.81
N#Cc1ccc(NC(=O)N2C3CCC2CC(O)(Cc2ccc(F)cc2F)C3)cc1 (stereo not drawn),-12,1.24
COCCc1noc(-c2ccccc2-n2cccn2)n1,0,0.02
COc1cccc(NC(=O)NCc2coc(CN(C)C)n2)n1,13,-1.68
CCc1ncc(CN(C)C(=O)C(=O)Nc2c(C)noc2CC)s1,-11,1.81
Cc1cccc2c(C(=O)NC(C)(C)[C@H](O)C(F)(F)F)coc12,6,-0.7
COc1cccc(C(=O)N[C@H](C(=O)NCC(C)C)C2CCN(C(=O)c3cccc(OC)c3)CC2)c1,1,-0.17
Cn1nc(C2CC2)c2[nH]c(-c3ccccc3OC(F)(F)F)nc21,-12,1.7
CCn1cc(CN(CC(C)C)C(=O)CCc2ccc(=O)[nH]n2)cn1,-10,1.75
COCCn1cnnc1CCNC(=O)c1cccn1C(C)C,-13,2.61
O=C1CCC2(CCN1)CCN(C(=O)c1cccc(-c3ccccc3)c1)CC2,-1,0.12
Cc1ccc(-c2cc(N3CCCN(C(=O)C4CCCCC4)CC3)[nH]n2)cc1C,-2,0.31
COc1ccc(C)cc1NC(=O)Cn1c(=O)n(CCc2cccs2)c(=O)c2ccccc21,1,-0.17
Cc1nc(-c2ccccc2)c(C(=O)N2CCOC[C@@H](O)C2)s1,-10,1.53
Cc1cnc(C(=O)N(C)C(C)(C)C(N)=O)c(C)c1,4,-0.66
Cn1cccc1[C@@H](O)CNC(=O)c1cnccn1,-20,3.45
C[C@@H](C#N)NC(=O)c1cc(F)ccc1Cl,8,-1.21
COc1cc(C(=O)N2CCC[C@H]2c2ccc(C(N)=O)s2)c2ccccc2n1,-13,2.01
CN1CCN([C@H]2CC(=O)N(c3ccc(N4CCOCC4)cc3)C2=O)CC1,10,-1.79
C[C@@H](CN(C)CCc1ccccn1)c1ccccc1,-8,1.19

Compound,% Inhibition [%],Z score
Cc1cc(C)cc(CS(=O)(=O)NC(=O)[C@H]2CC2(C)C)c1,-7,0.61
Cc1n[nH]c(C)c1NC(=O)CNC1(c2cccc(Cl)c2)CCCC1,-5,0.62
O=C(CNS(=O)(=O)Cc1ccccc1Cl)N1CCO[C@H](c2ccccc2)C1,-14,2.14
CN(CC(=O)Nc1cccc(F)c1)C(=O)CCC1CCCCC1,-1,0.13
O=C(NCc1n[nH]c2c1CCC2)c1coc(COc2cccc(F)c2F)n1,-9,1.25
CCN(CCO)S(=O)(=O)c1cccs1,-7,0.95
CCc1nnc(Cn2cnc3c(cnn3C)c2=O)s1,-1,0.1
O=C1[C@@H]2CC[C@@H](C2)N1Cc1ccc(Cl)c(Cl)c1,-9,1.6
CN1C[C@@H](NC(=O)C2(C)CCCC2)CC1=O,-4,0.66
CCc1nc(N2CCC(NC3CCOCC3)CC2)c2ccsc2n1,2,-0.38
Cc1ccc(-n2nc(C)cc2NS(=O)(=O)c2c(C)nn(C(C)C)c2C)nn1,-9,1.42
Cc1cccc(N(C)Cc2ccc(C(=O)N(C)C)[nH]2)c1C,29,-3.32
CC1(C)[C@H]2CC=C(CN3CCn4nc(C#N)cc4C3)[C@@H]1C2,8,-1.06
O=C(Nc1nc(C(=O)NCc2cccc(C(F)(F)F)c2)cs1)c1cc(F)cc(F)c1,-10,1.97
Cc1ncn(CCNC(=O)c2ccccc2-n2cncn2)c1C,12,-1.56
FC(F)(F)c1cccc(OCc2ccc(-c3nc4c([nH]3)CCNC4)cc2)c1,12,-2.34
Cc1noc(C)c1C(=O)N1CC[C@@H](n2c(=O)n(C)c3cccnc32)C1,-11,1.39
Cc1cc(S(=O)(=O)N2CCS(=O)(=O)C3COCCC32)c(C)s1 (stereo not drawn),16,-2.05
COc1ncccc1-c1csc(CN2CCOCC2)n1,4,-0.52
CCCN(C)C(=O)c1cc(-c2cnc(C(C)C)nc2)nc2c(C)c(C)ccc12,10,-1.29
O=C(NCCOCC(F)(F)F)c1csc2cncn12,-6,0.96
CCc1ccc(Cn2nc(CC3CC3)nc2CCC(=O)N(C)C)cc1,16,-2.06
CC(C)C[C@@H]1N[C@H](C(=O)NCc2ccco2)Cc2cn(Cc3nccn3C)c3cccc1c23,-11,2.01
CC1CC(C(=O)N2CCC(c3ncc[nH]3)C2)CC(C)(C)C1 (stereo not drawn),-8,1.26
CN(C)C(=O)Cc1ccc(F)c(Br)c1,-8,0.79
COC(=O)N(C)CC(=O)N(C)c1c(F)cccc1F,-16,1.66
CN1C[C@@H](O)CNS(=O)(=O)c2ccccc2O[C@H]2CN(Cc3cncnc3)C[C@H]21,-2,0.26
